In all, about 2,700 sequences were measured (“arbitrary fluorescence units”: median about 4,100, highest 2% from about 54,000 on). This is one part of the list.

For this assay, the target named is T1, ETS1 (UniProt P14921).
T1 sequence: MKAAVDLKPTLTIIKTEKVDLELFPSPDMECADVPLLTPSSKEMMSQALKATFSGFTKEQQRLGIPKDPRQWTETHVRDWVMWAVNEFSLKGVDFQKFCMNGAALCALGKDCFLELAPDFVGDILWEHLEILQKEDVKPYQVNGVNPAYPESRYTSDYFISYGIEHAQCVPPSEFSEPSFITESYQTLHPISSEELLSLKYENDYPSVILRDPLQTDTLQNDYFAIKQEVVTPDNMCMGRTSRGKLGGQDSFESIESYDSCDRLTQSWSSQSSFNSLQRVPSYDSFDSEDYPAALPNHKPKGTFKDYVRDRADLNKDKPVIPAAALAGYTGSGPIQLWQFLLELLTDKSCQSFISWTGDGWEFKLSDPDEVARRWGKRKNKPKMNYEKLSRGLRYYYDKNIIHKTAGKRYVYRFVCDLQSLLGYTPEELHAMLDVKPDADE
Kind of assay: ETS1 binding intensity (PBM fluorescence) (arbitrary fluorescence units); higher = stronger binding. Particulars: ETS1 concentration 10 nM. On the procedure:
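gcPBM on wild-type 36-bp genomic probes with two neighbouring ETS1 sites (4-24 bp apart). Recombinant human ETS1 (10 nM) was detected with anti-ETS1 antibody fluorescence. Values are medians over 3 replicate spots. The probes sit in constant array flanks that are not printed.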
As for CACACTTCCGGGTCCCATGCCAGTTGCATCCGCGGT, the ETS1 binding intensity came out at 45900. The sequence CAGTGAGTAGGGAAGTGGAGTGTTTCCTGACGGTTG registered an ETS1 binding intensity of 281. With TGGCTGAGAGGAAGTTCAGGAGGGGAAGGATGTGGT the figure was 1060; with GCAGAGAAAAGGCAGGAAGGAAGTGGACAAACTTGC, 1370. The sequence TGAGCTGTGTTTCCGGTCTTACATCCTTCTCAACAG showed an ETS1 binding intensity of 31700.

Regarding TAGGCGGGGTTCCGGCTTCTCCAAGGAAGTGGGGCG, the ETS1 binding intensity is 2500. With GTCCGGAAATAGAGGCGCACATTGGGAGGGAAATGC the figure was 10100. The value for CTTGGACTTCCGCCTCCCGGCCTCCGGAAGGCAGTG was 26200; that for TGGCTAGACAGACTTCCGCCATCCTGACTCCCGCCC was 13800; that for GCGCCACTTCCGGCAGCGAAGTCACTTCCGCGGAGG was 57600.

Regarding GCAGTCAGGCGGAAACGGCCCCTTTCCTGCCTCCTT, the ETS1 binding intensity came to 4290.

As for GGGTCTTCCGGCCCTCTCGAAAATCATTTCCGGCAT, the ETS1 binding intensity was 22500. ACCAGGGCTGCTTCCTCACATTTCCGGTCCTGAAAA had an ETS1 binding intensity of 27700.

In turn, GCCTGTGGTGCCTTCCGCAGCGGAAATGGCGCGCCG returned an ETS1 binding intensity of 3410. GGCCTCCACAGGAAGTGGCAAAGGAAGCAGCTTTCA had an ETS1 binding intensity of 16700. GGCTGGGGCGGATGCCGGGGCTGTTCCGGGCCCTCC displayed an ETS1 binding intensity of 1230. The value for GAAGGGATCCGCCGGGGCGCACCCTCTTCCGTCCCC was 209; that for GCACCAAGGGAAGTGGTTAAAACAGGAAGACCCGCT was 919; that for TGAGAGAGGAAGCATGAGAGAGAGGAGGAAGTACCA was 354. With AACACCCTTCCGCCATGACCCAATTCGGAAGTGCCA, the ETS1 binding intensity is 4240.

Take CCCGCGCTTCCGGAGGCGGAGAGAGCGGAAAGGGAA: the ETS1 binding intensity stood at 17100. Turning to CACCGCTTCCGTCGCTGCTGTAGTCGCTTCCTGCGG, the ETS1 binding intensity was 22300. The value for CAGCCTTCCGGCTGCGGAGCTGCTCCAGGAAGTCTC was 10800; that for ACAGCTCCCATCCTGCTTAGAGACTTCCTGTAATCT was 6520.

Turning to TGCAAACTTCCTCTCTGCAGGGGGTGGGAAGTGCTG, the ETS1 binding intensity worked out at 12600. The value for GTCAACAGGAACACAGGACTCTGACTTCCTTGTTGT was 377; that for GAGGCGGGACTTCCTACAGCACTTCCGGCCAGAGCC was 26500.

Turning to TAACTAGCTCCAGGAAGGGCAGGAAATGACACATGT, the ETS1 binding intensity was found to be 1500. With TTTAGTTCCGGCCTCTTTGCACGTCATTTCCGGCAC the figure was 16200.

As to AATTTACTTCCTGGTGAATAGAGACAGGAAGTAAAT, the ETS1 binding intensity turned out to be 13800. With GAGGAGCGGCCGGAAGTAGCCGGAATCTCTGAAAGA the figure was 28200; with GTTCGGTTCCGCCCCGTGCATTGTGCTTCCGCTCGG, 2660; with GAGCCGCGCAGGAAGCTGGGACCGGAACCTCGGCGG, 1920.

As to CCAATTCTCTTCCTGGACACACAGGAAGATGACATT, the ETS1 binding intensity was 1870.

Take GCGACGGAAAGAAAGCCGCCGGACCCACTTCCGGTG: the ETS1 binding intensity came out at 17100.

Turning to AGCAGGAAGGACCTCAGTCCTCCAGTGCGGATGCTG, the ETS1 binding intensity turned out to be 207. Turning to TCCACTTCCGGGTCCGGGACACCGCCCGGATCTTGC, the ETS1 binding intensity was 64200. On to TGCCAAGTTACACTTCCTGTTTCCTCTCTGTGTGCC, for which the ETS1 binding intensity worked out at 31700. As for AATACACACAGGAAGCAGCCCATTTCCTCAGAAGTT, the ETS1 binding intensity was 5650. The value for GGGGCGGAAGTGGGTGTGGCCACGGGCGGAAGCACT was 15200; that for CGCCGGTTGGGGGGAAGTAATTCCGGTTGTTGCACC was 2060; that for CACCACTTCCTGTTTCTGAGTCATCAGGAAGGTAAT was 58900.

AACCAAAAGACAGGAAATAACGGATGCTGGTGAGAA registered an ETS1 binding intensity of 7280.

Sequence AGACAAACATCCTCTTCAGCTAGAGGAAGCTCCTTC had an ETS1 binding intensity of 6260.

In turn, AAAGGGTAAACAGGATGTGACTTCCTGGATCACCAC returned an ETS1 binding intensity of 19500.

On to GGCGCACTTCCTCTTTCTGGTTTTAGGATGTCACCT, for which the ETS1 binding intensity was 20000. Sequence TCTATAGGAAACAGAGGTCAAGAGAGGGGAAGTGAC had an ETS1 binding intensity of 189. TTGACTCTTCCGCAGCAGTCATAACATCCTGTCTTG displayed an ETS1 binding intensity of 6330. The value for CCTCGGTTCCTGTCTTCTGCTCCTGTTTCCGCTCTG was 5570. The value for GGAGCGGAAAGGTACCAGGGCAGCTGCTTTCCGCTG was 284. The value for ATCAAGCCTTCCGCGCCGCGATTTGGGATGTGGGAG was 171. Take AACAGGAAGCCCAGGAGCAGGTCACTCAGGATGGGA: the ETS1 binding intensity is 628. With TCTCGACTTCCGGTTCACCCAGCATTTCCTCTTCCC the figure was 103000. In turn, AGCACCGGGAAGCGACCTCCCTGACGGAAGCGGGCG registered an ETS1 binding intensity of 432. The sequence GGGGCCTGCAGGAAGCCCCAGGAGGAAGCGAGACTT showed an ETS1 binding intensity of 761. The value for CGAGTGCACAGGATACGGCTGCTTCCTCCCCTGGCT was 2760; that for TATCAGAAACAGGATGCGCCCATCCTGGAGCTGGCG was 3710; that for TACAACAGGATGTGGCCCAGAAAGCAGGAAGGGGGC was 10500.

With GGCGGTGTGCCCCGGAAGCGGAAGTAGATTCTCCTA, the ETS1 binding intensity came to 10200. ATTTTCGGTCTTCCGGTCAGCCGGAACCACTCACAC displayed an ETS1 binding intensity of 29800. Consider CTCCCCAGGACGGAAGGTGGCCGGAAGAGCCCCGTC, for which the ETS1 binding intensity was determined as 1480. With TTAGAGGAAACAGTAAATGATTAGTCATTTCCTCTG the figure was 526; with CAGTGAGTCACGTTTCCGTTTCCTCTCACTGTTCCA, 7310. The value for GAAGTCAGTTTCCTGACTCTTGAAGGAAGTGGCCTT was 4710; that for GAACCTCCTTGCCGGAAGCGGAAGTGCGTCACGGCG was 7530.

With ACGGCTTCGGATGCTATGAAACTACTTCCGCATGAT, the ETS1 binding intensity is 991.

Regarding GACACAACTTCCGGCTTCTGGCGGCGGAAGAGGACA, the ETS1 binding intensity came to 90100. The value for TCTCCAGGAAGTTGGTTGATGATGGACTTCCGAGGC was 3450.

The sequence TGACAAGGGAAGTGCCTCTAAGAAAGGAAGTAAAAT displayed an ETS1 binding intensity of 560. With GACTCTACAGCACTTCCGCCTTCCGTCGCGAGGGCC, the ETS1 binding intensity stood at 28100. For the sequence GAACAAGGGCAGGATGTAATAAGGAAACAGATGGTA, the ETS1 binding intensity is 3120. Consider CGCAGCCAGCCACTTCCTCCTTCCTGAAACACTCTC, for which the ETS1 binding intensity worked out at 12800. With GTCGTGGCTTCCTGGTGAGTAAACTTCCTGTTTTTC the figure was 9200; with GCTTGGCAGTCAGGAAGGACTTCCTGTTTCTGCTTC, 14400; with GGACAGCCGCCGCTTCCGGTTTCCGCGAGCGCAGGC, 43000.

In the case of CATGGCTTTCCTGTTTGGGTCTGAAGGAAGTGGCGG, the ETS1 binding intensity worked out at 8210. CTGGGTCATCCGGCAGCCCAGCAGCTTCCGGCCCCC returned an ETS1 binding intensity of 10300. In the case of CAGACTTCCGGGGTCGAGAACTACAACTTCCGACTT, the ETS1 binding intensity was 61700. With GCTGGGGCCCGGAAGGACGAAGCTTCCCGGCAGAGA the figure was 1660; with GAGCTTCCGCTAGTCTTTCATCTTCAAAGGAAATCA, 28900.

Values taken from the supplement of paper PMC10681739.
